# Data: a collection of fitness landscapes (doi:10.1016/j.celrep.2020.107928)
# Over roughly 81,000 sequences, “one-hybrid fitness for binding NBS DNA” has its median near -0.1; the highest 2% begin near 0.36. The list shows a part of the results.
# B1: Caulobacter ParB omega fusion; a variant is named by its letters at X, in order, B8GW30 (parent)
# chain: MESVVVGEPGMSEGRRGLGRGLSALLGEVDAAPAQAPGEQLGGSREAPIEILQRNPDQPRRTFREEDLEDLSNSIREKGVLQPILVRPSPDTAGEYQIVAGERAWRAAQRAGLKTVPIMVRELDDLAVLEIGIIENVQRADLNVLEEALSYKVLMEKFERTQENIAQTIGKSXSHVANXMRLLXLPDEVQSYLVSGELTAXHARAIAAAADPVALAKQIIEGGLSVRETEALARKAPNLSAGKSKGGRPPRVKDTDTQALESDLSSVLGLDVSIDHRGSTGTLTITYATLEQLDDLCNRLTRGI
# Variants of: B1
# Experiment: one-hybrid fitness for binding NBS DNA (the Noc-binding site; scaled: cognate 1, non-cognate 0); higher = stronger binding
# Conditions: with NBS DNA site
# Outline: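 In E. coli USO, a HIS3 reporter with its site placed 19 bp from the promoter was used to select Caulobacter ParB variants randomised at four specificity codons. Growth lasted 48 hours at 37°C on histidine-free M9 containing 0.1 mM IPTG and 5 mM 3-AT. Fitness was taken as the log change in variant-to-wild-type read ratio from Illumina sequencing of pre- and post-selection plasmids, rescaled between the non-cognate and cognate sites.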
row,Variant,one-hybrid fitness for binding NBS DNA
1,VIMT,≤ 0.2
2,RVAD,≤ 0.2
3,ISYK,≤ 0.2
4,VRGV,≤ 0.2
5,STVL,≤ 0.2
6,ELAH,≤ 0.2
7,HCSL,≤ 0.2
8,SGKS,≤ 0.2
9,MGMR,≤ 0.2
10,HPFM,≤ 0.2
11,SNAN,≤ 0.2
12,RRNT,0.785
13,CLIA,≤ 0.2
14,GAAP,≤ 0.2
15,ITIT,≤ 0.2
16,WTPE,≤ 0.2
17,RCHC,0.237
18,KFMS,≤ 0.2
19,HSYI,≤ 0.2
20,LKHL,≤ 0.2
21,YRTL,≤ 0.2

row,Variant,one-hybrid fitness for binding NBS DNA
1,HHDT,≤ 0.2
2,YCTS,≤ 0.2
3,SQSL,≤ 0.2
4,YKTG,≤ 0.2
5,AVLF,≤ 0.2
6,AMGP,≤ 0.2
7,YDNT,≤ 0.2
8,LHPV,≤ 0.2
9,FRMG,≤ 0.2
10,PFPC,≤ 0.2
11,RRSK,0.378
12,GSYP,≤ 0.2
13,EPLI,≤ 0.2
14,IIGI,≤ 0.2
15,ASGN,≤ 0.2
16,FLDK,≤ 0.2
17,GRNS,≤ 0.2
18,VIEN,≤ 0.2
19,QQNC,0.265
20,SCIS,≤ 0.2
21,QKKG,0.332

row,Variant,one-hybrid fitness for binding NBS DNA
1,WCRK,≤ 0.2
2,GGET,≤ 0.2
3,MISY,≤ 0.2
4,GYTR,≤ 0.2
5,KKSY,≤ 0.2
6,HQWG,≤ 0.2
7,VARD,≤ 0.2
8,NTQS,≤ 0.2
9,MGKS,≤ 0.2
10,PGDL,≤ 0.2
11,DSQG,≤ 0.2
12,DQTS,≤ 0.2
13,YPNS,≤ 0.2
14,RCNS,0.557
15,WDSP,≤ 0.2
16,TRMA,≤ 0.2
17,SGKF,≤ 0.2
18,DEPL,≤ 0.2
19,IKCC,≤ 0.2
20,IESL,≤ 0.2
21,SSPW,≤ 0.2

row,Variant,one-hybrid fitness for binding NBS DNA
1,RLGN,≤ 0.2
2,ASPG,≤ 0.2
3,PLIQ,≤ 0.2
4,QENG,≤ 0.2
5,LCAE,≤ 0.2
6,CRKW,≤ 0.2
7,DNSC,≤ 0.2
8,TRQM,≤ 0.2
9,RYSM,≤ 0.2
10,TSRW,≤ 0.2
11,MRSR,≤ 0.2
12,VGNT,≤ 0.2
13,HCRV,≤ 0.2
14,KLPH,≤ 0.2
15,RHEC,≤ 0.2
16,PPYS,≤ 0.2
17,AKLF,≤ 0.2
18,RIND,≤ 0.2
19,CKFS,≤ 0.2
20,SSEA,≤ 0.2
21,NEPT,≤ 0.2
